From the supplement of paper PMC11417369
± gives the standard deviation of the averaged measurements. Some of the results follow.

These sequences were tested on PfAP2-I AP2 domain 3 (GST-tagged) (assay: gcPBM binding intensity (ln(normalized median fluorescence intensity)); higher = stronger DNA binding).
Procedure, shortened: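 Each value is the highest Masliner-normalised natural-log median intensity across replicate spots of either orientation of a probe. The probes were primer-extended double-stranded 36-bp intergenic genomic sequences on an Agilent 4 × 180k array, alongside negative controls, exposed for 1 h to GST-tagged P. falciparum DNA-binding domains expressed in E. coli. Bound protein was picked up with Alexa488 anti-GST antibody and scanned at 488 nm.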
For “AATGAAAAATGTATCGTTAAAGGGTATCTTAAGGAT [XGTACX_negctrl_site222]”, the “gcPBM binding intensity (ln)” value was 7.63 ± 0.64. In the case of “CCAAAGAAATATAATACACACAAGAATATATTGGAT [CACACA_site6018]”, the “gcPBM binding intensity (ln)” value is reported as 7.97 ± 0.57. In the case of “ACTTGTTTTCAATGTAAAATACAATTTTCATTTATT [CACACA_negctrl_site435]”, the “gcPBM binding intensity (ln)” value is reported as 7.62 ± 0.66. For “ATATTATAAAATAAAAGTACACAATTATATATATAT [XGTACX_site8812]”, the “gcPBM binding intensity (ln)” value was 8.87 ± 0.17. With “AATAAAATGGAATACGGTACACATAATCCTAAAATG [XGTACX_site926]” the “gcPBM binding intensity (ln)” value was 7.67 ± 0.66. In the case of “TATTTTTAAAATTAAATGAATAAATAAATAAATATA [XGTACX_negctrl_site553]”, the “gcPBM binding intensity (ln)” value is reported as 7.22 ± 0.41. TTTATATTTATTGTTGTGCACAGAACCATATTCGTT was tested, and the “gcPBM binding intensity (ln)” value was 10.8 ± 0.21. In the case of “TATCACTATAGACAAGCATGCATATGTACTAATATC [TGCATGCA_site1020]”, the “gcPBM binding intensity (ln)” value is reported as 7.94 ± 0.47. For “TAACATAAATTTAGGAGTACACTTTTTATACATACA [XGTACX_site4066]”, the “gcPBM binding intensity (ln)” value was 8.04 ± 0.35. “TATATATTTATTTATAGTACACTATTTATGAAAACC [XGTACX_site3062]” was tested, and the “gcPBM binding intensity (ln)” value was 8.24 ± 0.18. In the case of “CATTATTATTAACATACACACGTGTTATATACCCCC [CACACA_site9365]”, the “gcPBM binding intensity (ln)” value is reported as 9.405 ± 0.092. With “AAATTCACAATGTTTGGTACACATAAAAAAAAAAGA [XGTACX_site7109]” the “gcPBM binding intensity (ln)” value was 8.01 ± 0.61. For “AACATACGACAATACGCACACATATCTGTACATATT [CACACA_site5115]”, the “gcPBM binding intensity (ln)” value was 8.39 ± 0.36. For “TTTATATATTTTGTCGTGCACATTTGGAAAATTACA [GTGCAC_site9776]”, the “gcPBM binding intensity (ln)” value was 10.8 ± 0.16. With “AAAAATTTTTTTTTTTTTTTAAATAATAAAAATGAA [CACACA_negctrl_site1435]” the “gcPBM binding intensity (ln)” value was 7.465 ± 0.035. For TATTATTATTTTATGGTGCAAAAAAAAAAAAAAAAA, the “gcPBM binding intensity (ln)” value was 10.9 ± 0.61. In the case of “AAAAAGTTATTATGAACACACATTTATTATAGTCAT [CACACA_site6838]”, the “gcPBM binding intensity (ln)” value is reported as 7.45 ± 0.68. With “CATATAAATATTTGTGCACACAATTATTAATAATTA [CACACA_site3884]” the “gcPBM binding intensity (ln)” value was 11.3 ± 0.23. With “ATTTGAAATTGGTAGACACACAATAAAATATCAAAA [CACACA_site447]” the “gcPBM binding intensity (ln)” value was 7.64 ± 0.62. For “TTAAACTTGAGACACACACACACACGGATATAAAAA [CACACA_site6495]”, the “gcPBM binding intensity (ln)” value was 8.12 ± 0.62. With “CTTTTATTCAAAAGATGTACTTAAATATATATCTAA [XGTACX_site4326]” the “gcPBM binding intensity (ln)” value was 7.58 ± 0.18. In the case of “TGCAGTCTGGAGAAACGTACACAGTATCTGGTAACA [XGTACX_site2014]”, the “gcPBM binding intensity (ln)” value is reported as 7.79 ± 0.36. “ATGTGTATAATTAAATGTACATATATATATATATAT [XGTACX_site829]” was tested, and the “gcPBM binding intensity (ln)” value was 9.57 ± 0.35. In the case of “ATATATATCGGACACACACACATGTTTTAAAACTAT [CACACA_site4218]”, the “gcPBM binding intensity (ln)” value is reported as 8.3 ± 0.54. For “TATAATAATCTAATCTGTAGTTTTTTTTTTTTTTTT [CACACA_negctrl_site1206]”, the “gcPBM binding intensity (ln)” value was 8.31 ± 0.65. In the case of “GGCTTTTTTTAATATGCACACATATATTTTATATAT [CACACA_site8647]”, the “gcPBM binding intensity (ln)” value is reported as 9.32 ± 0.2. “AAAAAAAAACAGAAAACACACAAATTATCTTATAAT [CACACA_site4326]” was tested, and the “gcPBM binding intensity (ln)” value was 7.5 ± 0.5. In the case of “TGTATATATATCTCAGTGCATTGCAAATTAAAAATT [GTGCAC_site9646]”, the “gcPBM binding intensity (ln)” value is reported as 9.74 ± 0.27. For “ATACTCACGTGACACACACACAATATAAATAAATAT [CACACA_site7862]”, the “gcPBM binding intensity (ln)” value was 8.1 ± 0.23. For “AATAAATAAATAAATAAATATATATATATATATATA [GTGCAC_negctrl_site224]”, the “gcPBM binding intensity (ln)” value was 9.38 ± 0.47. For “TTATATTAAAAAAGATGTACGTTTAGGAAAAATATA [XGTACX_site7456]”, the “gcPBM binding intensity (ln)” value was 7.96 ± 0.43. For “TTAGATTTAAATATCATACACACTTTATATATAATA [CACACA_site959]”, the “gcPBM binding intensity (ln)” value was 7.56 ± 0.57. For “ATAAAAATAAACATACGTACTTACACGAATATACAT [XGTACX_site5989]”, the “gcPBM binding intensity (ln)” value was 7.83 ± 0.52. “CTTGAAAAAATAAAAACACACAATGTGTTTTTGAAT [CACACA_site3283]” was tested, and the “gcPBM binding intensity (ln)” value was 7.42 ± 0.68. With “ATATTACTATATTATTGTACGTTAAAAAAAAAAAAT [XGTACX_site8734]” the “gcPBM binding intensity (ln)” value was 7.87 ± 0.42. For “TTTCTAAATAATTATAATGAATCTGCAAACAAGCAT [XGTACX_negctrl_site391]”, the “gcPBM binding intensity (ln)” value was 7.45 ± 0.54. “ATTTATATCTCCATATGTTCAAAACTTTCACAAATA [TGCATGCA_negctrl_site108]” was tested, and the “gcPBM binding intensity (ln)” value was 7.78 ± 0.63. With TATTAACAAATTTATGTGCACTGAGGACAAATATAT the “gcPBM binding intensity (ln)” value was 10.96 ± 0.085. In the case of “AAAATAAGTAATTACTAATATATAAATTAATAATTA [CACACA_negctrl_site1602]”, the “gcPBM binding intensity (ln)” value is reported as 7.12 ± 0.47. “AATATAAATTAATTTACACACTAAAAAATATATATA [CACACA_site3778]” was tested, and the “gcPBM binding intensity (ln)” value was 7.81 ± 0.58. With “AAAGAAAAAAAAATTACACACATATATTATATATAT [CACACA_site3211]” the “gcPBM binding intensity (ln)” value was 8.34 ± 0.47. With “AAATAGAAGAAATATGCACACATACATTGAAATGTT [CACACA_site7996]” the “gcPBM binding intensity (ln)” value was 8.56 ± 0.54. In the case of TTTTCTTCATAAATGCTGCACTGGTTTAAGCATGAT, the “gcPBM binding intensity (ln)” value is reported as 9.09 ± 0.042. “TTTATTAATAAACACACACACACACCCAAAATAAAA [CACACA_site7966]” was tested, and the “gcPBM binding intensity (ln)” value was 8.375 ± 0.007. “CCTTAATATTTTTGAAGTACATATTTATTTTACAAG [XGTACX_site3049]” was tested, and the “gcPBM binding intensity (ln)” value was 7.92 ± 0.23. “TTAATATGAAATAAATGTACATAATACATAATAAAA [XGTACX_site6194]” was tested, and the “gcPBM binding intensity (ln)” value was 7.75 ± 0.52. “AATTGAAAAATATATAAGAAGAAATATATATATGTT [GTGCAC_negctrl_site97]” was tested, and the “gcPBM binding intensity (ln)” value was 7.64 ± 0.62. With “GTTTTTAGTATTTTTTGTACTTAATACATAGCCTTA [XGTACX_site7318]” the “gcPBM binding intensity (ln)” value was 7.75 ± 0.57. In the case of “AACACGCGCGGACACACACACACACCCACATATATA [CACACA_site5252]”, the “gcPBM binding intensity (ln)” value is reported as 8.25 ± 0.48. With “TTTATGCATAGAGAAACATGCAAGAAAGATGCAAAA [TGCATGCA_site726]” the “gcPBM binding intensity (ln)” value was 9.74 ± 1. For “TTCCTTATTATTATTTTACACACGTCCTAATAAGAG [CACACA_site8364]”, the “gcPBM binding intensity (ln)” value was 8.1 ± 0.61. In the case of “GCTTGTACATTTTTAAAAAATGACTTCGAAAGGAAT [CACACA_negctrl_site453]”, the “gcPBM binding intensity (ln)” value is reported as 8.07 ± 0.41. For “ATTATGTATACATAAACACACATATTTATAAAAAAA [CACACA_site6261]”, the “gcPBM binding intensity (ln)” value was 7.88 ± 0.32. With “ATATATTTATATATATGTACATATTATGTTAAGAAA [XGTACX_site1111]” the “gcPBM binding intensity (ln)” value was 7.87 ± 0.3. In the case of “TATGTATTCATATGTTGTACATTATATATAATAAGT [XGTACX_site6589]”, the “gcPBM binding intensity (ln)” value is reported as 8.1 ± 0.36. With “AGCACACAAAAAAAAAAAAAAAAAAAAAAAGGAATG [GTGCAC_negctrl_site73]” the “gcPBM binding intensity (ln)” value was 7.83 ± 0.59. In the case of “AAATCAGAACCTATTTGTACATATACAAAAATGATT [XGTACX_site2421]”, the “gcPBM binding intensity (ln)” value is reported as 7.57 ± 0.55.
